The numbers were not newly measured in article PMC11784359 (Antimicrobial Agents and Chemotherapy, 2024), which cites them from elsewhere.

For the series the following is noted: cited from earlier work.

For the compound `CC(C)(N)[C@H](NC(=O)c1ccc(C#CC#C[C@@H]2C[C@H]2CO)cc1)C(=O)NO` [ACHN-975, reference compound], the cardiovascular adverse effects entry (halted development) is “dose-limiting cardiovascular adverse effects”. Consider `C[C@@](O)(C(F)F)[C@H](NC(=O)c1ccc(C#CC#CC2CC2)cc1)C(=O)NO` [LPC-233], for which the cardiovascular liabilities result (preclinical animal studies) was “did not show the same liabilities”.
